# Measurements published in PubChem BioAssay AID1346428 (National Center for Advancing Translational Sciences (NCATS), 2018).
# Several values for one entry are separate records, joined by “and”; a condition that tells them apart may be missing. Identical values can stand only once. The whole screen tested about 48,000 compounds, of which about 1,200 (2.5%) were called active. Another 2% or so got no clear call; they are omitted.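 Rule for the calls: active = activation of at least 60% and not above a set upper limit (about 1 call in 100 departs from these limits); inconclusive = activation of 40% to 60%, or above that upper limit; inactive = activation under 40%.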 Some of the results follow.
# Target: Probable G-protein coupled receptor 32 (Homo sapiens) (UniProt O75388)
# Test: qHTS for Agonists of Human Resolvin D1 Receptor DRV1; note: 0% is about no effect
# Settings: CHO-K1 GPR32 beta-arrestin PathHunter luminescence, 90 min; at 76.9 µM; hits give high values; zero percent set by DMSO-only wells
# Method in brief: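 Step 1: seed CHO-K1 GPR32 beta-arrestin cells, 2,500/well, overnight at 37 °C. Step 2: add compounds, 90 min at 37 °C. Step 3: detection reagent, 1 h ambient, then luminescence.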
# UniProt O75388, sequence (O75388 whole entry, looked up): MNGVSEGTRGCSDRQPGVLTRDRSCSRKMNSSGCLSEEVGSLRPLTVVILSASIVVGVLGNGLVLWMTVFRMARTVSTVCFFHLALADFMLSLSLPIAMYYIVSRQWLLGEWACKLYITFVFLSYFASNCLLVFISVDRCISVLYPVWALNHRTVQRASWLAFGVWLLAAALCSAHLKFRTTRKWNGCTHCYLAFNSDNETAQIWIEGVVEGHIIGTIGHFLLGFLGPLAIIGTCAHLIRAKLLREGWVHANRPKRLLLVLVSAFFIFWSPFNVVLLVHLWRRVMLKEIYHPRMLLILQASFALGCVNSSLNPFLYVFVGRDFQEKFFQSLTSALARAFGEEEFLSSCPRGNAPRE
row,SMILES,activation
1,Cn1c(=O)oc2cc(S(=O)(=O)Nc3ccc(O)cc3)ccc21,inactive: 6.47%
2,Cc1ccc(-c2nc3cccnc3s2)cc1NC(=O)Cc1ccccc1,inactive: -6.55%
3,Cc1cccc(C)c1OCC(=O)N[C@@H](Cc1ccccc1)[C@@H](O)C[C@H](Cc1ccccc1)NC(=O)[C@H](C(C)C)N1CCCNC1=O,inactive: 6.34%
4,COc1ccc(NC(=O)Cn2ccn(-c3ccccc3)c(=O)c2=O)cc1,inactive: -2.62%
5,COc1ccccc1Nc1ncnc2c1nc1n2CCCC1,inactive: 5.94%
6,Cc1ccc(-n2nc(C)c3c(C(=O)Nc4ccc(Br)c(C)c4)cc(C)nc32)cc1,inactive: -1.94%
7,COC(=O)C1=C(C)NC(=O)C1(NC(=O)c1ccccc1C)C(F)(F)F (centres undefined),inactive: 14.7%
8,COCCNC(=O)CSc1nc(-c2ccc(C)cc2)nc2c1c(=O)n(C)c(=O)n2C,inactive: -10.7%
9,CCOCCCn1c(=N)c(C(=O)NCC2CCCO2)cc2c(=O)n3cc(C)ccc3nc21 (centres undefined),inactive: -5.47%
10,COc1cccc(-c2nc(SCC(=O)N3CCc4ccccc43)c3c(=O)n(C)c(=O)n(C)c3n2)c1,inactive: -6.72%
11,COc1ccc(CCC(=O)NCc2ccc3c(c2)CCN3C(=O)c2ccc(C)cc2)cc1,inactive: -23.6%
12,CCOc1ccccc1CNC(=O)CN1C(=O)CCc2cc(S(=O)(=O)N3CCCCC3)ccc21,inactive: 0.499%
13,Cc1cccc(OCC(=O)Nc2ccc3nc(Nc4cccc(Cl)c4)cc(C)c3c2)c1,active: 103%
14,CCOC(=O)c1c(-c2ccccc2)oc2ccc(NS(=O)(=O)c3ccc(C(C)C)cc3)cc12,inactive: -1.41%
15,COc1ccccc1NC(=O)c1c(NC(=O)c2ccccc2Cl)sc2c1CCC2,inactive: -4.64%
16,Cn1c(=O)c(=O)n(C)c2cc(NC(=O)c3ccccc3Br)ccc21,inactive: 20.5%
17,CC(=O)N1CCc2c(sc3c2c(=O)n(Cc2ccccc2)c(=O)n3CC(=O)Nc2ccc(C)c(F)c2)C1,inactive: -21.6%
18,CCOc1ccc(CNC(=O)CCCn2c(=O)c3cccn3c3ccc(F)cc32)cc1,inactive: -16.6%
19,CCc1ccc(NC(=O)CCn2cnc3ccccc3c2=O)cc1,inactive: -6.4%
20,COc1ccc(CN2C(=O)C(NC(=O)c3ccccc3OC)(C(F)(F)F)N=C2c2ccccc2)cc1 (centres undefined),inactive: -9.89%
21,Clc1ccc(C(c2ccccc2Cl)C(Cl)Cl)cc1 (centres undefined),inactive: -4.3% and inactive: 5.36%

row,SMILES,activation
1,CCOC(=O)c1c(C)sc(-c2c(-c3ccc(OC)c(F)c3)[nH]c3c2c(=O)[nH]c(=O)n3C)c1O,inactive: -26.5%
2,CC(C)Oc1ccc(CNC(=O)c2ccc3nc(Cc4ccccc4)oc3c2)cc1,inactive: -5.22%
3,CCC(CC)C(=O)Nc1ccc2nc(SCC(=O)N3c4ccccc4CC3C)sc2c1 (centres undefined),inactive: 4.89%
4,Cc1ccc(-c2nn3c(=O)cc(CN4CCN(C(=O)Nc5cc(Cl)ccc5C)CC4)nc3s2)cc1,inactive: -2.26%
5,Cc1cc(C)cc(OCC(=O)N(Cc2ccc(C)o2)C2CCS(=O)(=O)C2)c1 (centres undefined),inactive: -26.3%
6,CN(C)c1ccc(C(=C2C=CC(=[N+](C)C)C=C2)c2ccccc2)cc1,active: 95%
7,COc1cc(OC)c(Nc2ncnc3onc(-c4cccc(Cl)c4)c23)cc1Cl,inactive: -3.29%
8,CCC(C)NC(=O)CSc1nc2cc3c(cc2c(=O)n1CCCC(=O)NCc1ccc2c(c1)OCO2)OCO3 (centres undefined),inactive: -12.1%
9,Cc1ccc(CN(Cc2ccco2)C(=O)c2oc3c(C)c(C)ccc3c2C)cc1,inactive: 13.7%
10,COCCNC(=O)c1cc2c(Cl)nc3ccc(C)cc3c2s1,inactive: -14.1%
11,COc1cccc(N(CC(=O)N2CCC(C)CC2)S(=O)(=O)c2ccc(C)cc2)c1,inactive: -11.8%
12,COc1ccc(Cl)cc1NC(=O)c1c(NCc2ccc(C)o2)sc2c1CCCC2,inactive: -16.7%
13,C=CCc1c(C)nc2nc(SCC(=O)Nc3ccc(OCC)cc3)nn2c1C,inactive: -2.48%
14,Clc1ccccc1Cc1cn2cc(-c3ccccc3)nc2s1,inactive: 25.2%
15,O=C1O[C@H]([C@@H](O)CO)C(O)=C1O,inactive: -33.5%
16,CCc1ccc(NC(=O)CSc2nnc(-c3cc4occc4n3C)n2-c2ccccc2C)cc1,inactive: -32.3%
17,Cn1c(=O)c2c(-c3ccccc3Br)n(CCc3ccccc3)cc2n(C)c1=O,inactive: -7.47%
18,CCCCOc1ccc(C2=NC(c3ccccc3)=Nc3ccc(OC)cc3N2)cc1,inactive: -22.4%
19,COc1ccccc1CNC(=O)Cn1nc(C)c2nn(-c3ccc(Cl)cc3)c(C)c2c1=O,inactive: -26.4%
20,CC(C)c1ccc(Nc2ncnc3c2c(-c2ccccc2)cn3-c2ccccc2)cc1,inactive: 1.05%
21,Cc1cc(C)cc(NC(=O)C2(c3cccs3)CCOCC2)c1,inactive: 23.3%

row,SMILES,activation
1,Clc1cccc(-n2ncc3c(N4CCN(Cc5ccccc5)CC4)ncnc32)c1,inactive: -0.66%
2,CC(C)COc1ccccc1C1CC(=O)Nc2cc3c(cc21)OCO3 (centres undefined),inactive: 19%
3,COc1ccccc1NC(=O)CSc1nnc2c3ccccc3n(C)c2n1,inactive: -2.82%
4,COc1cccc(CNC(=O)Cn2ccc3cc(S(=O)(=O)N4CCC(C)CC4)ccc32)c1,inactive: 27.4%
5,Cc1ccccc1CNC(=O)C1CCN(c2nn3cc(-c4ccc(F)cc4)nc3s2)CC1,inactive: -5.74%
6,NC(=O)c1cc(S(=O)(=O)N2CCN(c3ccc(F)cc3)CC2)cs1,inactive: 23.7%
7,COC(=O)c1ccc(NC(C)=O)cc1OC,inactive: -10.5%
8,CCC(CC)c1nn2c(=O)cc(COc3ccc(NC(=O)c4ccccc4Cl)cc3)nc2s1,inactive: 33.4%
9,Cc1cccc(CNS(=O)(=O)c2ccc3[nH]c(=O)ccc3c2)c1,inactive: 2.88%
10,CC1CCCCN1CCCNC(=O)Cn1ncc2c([nH]c3ccccc32)c1=O (centres undefined),inactive: -8.85%
11,COc1ccc(Cn2c(=O)[nH]c3cc(C(=O)N4CCN(c5cc(C)ccc5C)CC4)ccc3c2=O)cc1,inactive: 8.99%
12,COc1ccc(C)cc1NC(=O)c1cc(S(=O)(=O)NC2CCCCCC2)ccc1F,inactive: -8.92%
13,COc1ccc(-c2cnnn2-c2ccc(NC(=O)c3c(F)cccc3F)cc2)cc1,inactive: -25.1%
14,COc1ccc(-c2cnnn2-c2ccc(NC(=O)c3ccc(S(=O)(=O)N(C)C)cc3)cc2)cc1,inactive: -0.509%
15,CC(=O)c1cc(-c2ccccc2)n(CC(=O)NC2CCCCC2)c1C,inactive: 8.5%
16,CCOC(=O)c1cnc2cc(-c3ccc(Cl)cc3)nn2c1-c1ccccc1,inactive: 41.4%
17,CC(C)Cn1c(=O)c2ccccc2n2c(CCC(=O)Nc3cccc(Cl)c3)nnc12,inactive: -12.1%
18,Cc1ccc(NC(=O)Cn2c(=O)n(CCCCCC(=O)NCc3ccc(F)cc3)c(=O)c3sccc32)cc1C,inactive: 5.24%
19,CCCOc1ccc(-c2nn(-c3ccccc3)cc2C2NC(=O)NC(C)=C2C(=O)OC(C)C)cc1 (centres undefined),inactive: -5.41%
20,O=C1Nc2c(c(=O)[nH]c(=O)n2-c2ccccc2)C1(NS(=O)(=O)c1ccc(Cl)cc1)C(F)(F)F (centres undefined),inactive: -7.24%
21,CCOc1ccccc1/C=C/c1onc(C)c1S(=O)(=O)N1CCC(C(=O)N(CC)CC)CC1,inactive: -21.2%

row,SMILES,activation
1,OC(CCN1CCCC1)(c1ccccc1)C1CCCCC1 (centres undefined),inactive: 2.36%
2,CCOc1ccc(Cn2nnc3c(=O)[nH]c(C4CCN(C(=O)c5ccccc5)CC4)nc32)cc1,inactive: -20.4%
3,COc1cc(-c2nnc(SCC(=O)NCc3ccccc3Cl)o2)cc(OC)c1OC,inactive: 12%
4,O=C(Cc1ccc(F)cc1)NC1CC(=O)N(c2ccccc2)C1 (centres undefined),inactive: -3.93%
5,CCOc1ccc(CCNC(=O)CN2C(=O)C(CC)Oc3ccccc32)cc1OCC (centres undefined),inactive: -17.9%
6,CC(C)NCC(O)COc1cccc2[nH]ccc12 (centres undefined),inactive: 9.98% and inactive: -6.05%
7,COc1ccc(C(=O)NCc2nnc(SCC(=O)Nc3ccccc3)n2-c2ccc(F)cc2)cc1,inactive: 12.5%
8,Cn1c(=O)oc2cc(S(=O)(=O)CCC(=O)N3CCN(c4ccccc4)CC3)ccc21,inactive: -7%
9,COc1ccccc1-c1cc(C(=O)Nc2sc3c(c2C#N)CCCC3)no1,inactive: -0.65%
10,COc1ccc(NC(=O)c2c(NCc3ccc(C)o3)sc3c2CCC(C)C3)c(OC)c1 (centres undefined),inactive: -8.32%
11,COc1ccc(OC)c(NC(=O)CSc2ccnc(=O)[nH]2)c1,inactive: -6.77%
12,COc1ccccc1N1CCN(S(=O)(=O)c2c(C)sc3ncn(CC(=O)Nc4cccc(Cl)c4)c(=O)c23)CC1,inactive: 0.399%
13,Cc1ccc2c(c1)NC(=O)C(CC(=O)Nc1cc(Cl)ccc1C)O2 (centres undefined),inactive: -4.9%
14,COc1ccc(C2CC(c3c(O)n(C4CCCCC4)c(=O)[nH]c3=O)=Nc3ccccc3S2)cc1 (centres undefined),inactive: 0.48%
15,COC(=O)c1c(-c2ccc(Cl)cc2)noc1N1CCN(c2ccc(OC)cc2)CC1,inactive: -3.67%
16,CCc1nn2c(=O)cc(COC(=O)CNC(=O)c3ccccc3)nc2s1,inactive: -23.2%
17,COc1cc(OC)c(Nc2cc(C)nc3ncnn23)cc1Cl,inactive: -2.14%
18,O=C(Nc1ccc(Br)cc1)C1CCN(c2cnccn2)CC1,inactive: 2.24%
19,CCOc1ccc(C(=O)Nc2cccc(NC(=O)c3ccco3)c2)cc1Cl,inactive: -11.5%
20,CCN(CC)S(=O)(=O)c1nnc(NC(=O)COc2ccccc2Cl)s1,inactive: 13.6%
21,COc1ccccc1CNC(=O)c1ccc(N2CCCC2)c(NC(=O)NCc2ccccc2)c1,inactive: -16.9%
